# This is one part of the list. Read counts after selection give these values, which scatter widely. Scores sum up all selected molecules that hold the word; the word was not tested alone.
# Test system: IMP3 KH1-2
# Experiment: 6-mer SELEX enrichment z-score vs GST control; IMP3 is the RNA-binding protein IGF2BP3; higher = more enriched by binding
# Details: construct: KH1-2 (164-376); SELEX round: R4
# Procedure: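 SELEX-seq with GST-tagged IMP3 KH1-2 (Pro164-Phe376) and an N40 RNA pool, round 4 (stringent 300/600 mM KCl washes). 6-mer z-score of sequence-tag enrichment normalised to the corresponding GST SELEX round; RNA k-mers written as DNA (T for U).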
# IMP3 KH1-2, sequence (chain, as listed by the source): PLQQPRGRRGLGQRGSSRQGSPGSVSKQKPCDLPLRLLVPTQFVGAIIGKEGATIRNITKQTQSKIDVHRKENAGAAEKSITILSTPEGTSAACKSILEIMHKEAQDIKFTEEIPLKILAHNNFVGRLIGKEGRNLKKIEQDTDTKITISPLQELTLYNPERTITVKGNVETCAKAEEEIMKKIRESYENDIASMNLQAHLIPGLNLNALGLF
row,Sequence,6-mer SELEX enrichment z-score
1,AGAATG,0.546
2,CGCTAC,0.254
3,GTCCAT,0.431
4,GTTGTG,-0.113
5,CCTGTA,-0.253
6,GATGCC,-0.956
7,CCGTAC,-0.61
8,AACAGA,0.98
9,TTAGTG,0.079
10,ACCCTG,-1.57
11,ATGGAA,0.567
12,CACGCC,0.064
13,GTCCCG,-0.836
14,CACCTG,-0.898
15,CCCTCG,-0.996
16,AAATGA,0.32
17,GAGCCT,-1.2
18,GGCCGT,0.143
19,ATCGGT,0.039
20,CCATGG,0.09

row,Sequence,6-mer SELEX enrichment z-score
1,ACGAAC,-1.08
2,TGTGTT,0.086
3,GCCATG,0.14
4,AGTGTT,-0.331
5,AATGAT,1.19
6,CGGGAG,0.345
7,GACTTG,-0.681
8,GTTATT,0.249
9,CCAGGG,-0.159
10,CTCACA,0.575
11,ACATTT,1.92
12,TCGCGT,-0.717
13,GCAGGG,1.02
14,CATTAT,1.61
15,TACCGG,-0.201
16,CTAGGC,0.127
17,CTCTGA,-0.324
18,GAACTA,0.154
19,ACTCGT,-0.82
20,GATGCG,-0.734
